Results on 153 variants are retold here after a collection of fitness landscapes (doi:10.1126/science.1257360).

First the molecules themselves.
B1: PhoQ; a variant is named by its letters at X, in order, P23837 (parent)
chain: MKKLLRLFFPLSLRVRFLLATAAVVLVLSLAYGMVALIGYSVSFDKTTFRLLRGESNLFYTLAKWENNKLHVELPENIDKQSPTMTLIYDENGQLLWAQRDVPWLMKMIQPDWLKSNGFHEIEADVNDTSLLLSGDHSIQQQLQEVREDDDDAEMTHSVAVNVYPATSRMPKLTIVVVDTIPVELKSSYMVWSWFIYVLSANLLLVIPLLWVAAWWSLRPIEALAKEVRELEEHNRELLNPATTRELTSLVRNLNRLLKSERERYDKYRTTLTDLTHSLKTPLXXLQXXLRSLRSEKMSVSDAEPVMLEQISRISQQIGYYLHRASMRGGTLLSRELHPVAPLLDNLTSALNKVYQRKGVNISLDISPEISFVGEQNDFVEVMGNVLDNACKYCLEFVEISARQTDEHLYIVVEDDGPGIPLSKREVIFDRGQRVDTLRPGQGVGLAVAREITEQYEGKIVAGESMLGGARMEVIFGRQHSAPKDE

This is one part of the list. Bounds are passed on as bounds.

Variants of B1 are the subject of the assay. In words: enrichment ratio after two sorts for PhoP signalling (ratio (wild type AVST 3.29)); higher = more functional. The note with it: with PhoP (E. coli).
Regarding ITCA, the enrichment ratio is no more than 0.25.
With QIRK the figure was no more than 0.25.
Turning to SFLN, the enrichment ratio was no more than 0.25.
With SIHK the figure was no more than 0.25; with DVMV, no more than 0.25; with HTVD, no more than 0.25.
On to PEMY, for which the enrichment ratio is no more than 0.25.
Consider AMCI, for which the enrichment ratio came out at 14.1.
With HIFV the figure was no more than 0.25; with MSMA, no more than 0.25.
With SRFV, the enrichment ratio is no more than 0.25.
With FMRC the figure was no more than 0.25; with SMYP, no more than 0.25; with WQFP, no more than 0.25.
With AIYG the figure was 0.334; with AMIK, no more than 0.25; with KHNW, no more than 0.25.
The value for WLVY was no more than 0.25.
For DNSI, the enrichment ratio is no more than 0.25.
For the variant VRPD, the enrichment ratio was no more than 0.25.
With HEHL the figure was no more than 0.25; with VDSH, no more than 0.25; with KLFL, no more than 0.25.
On to KMID, for which the enrichment ratio was no more than 0.25.
Turning to EKYL, the enrichment ratio is no more than 0.25.
Regarding FCLA, the enrichment ratio was 1.1.
ASRA: the enrichment ratio was no more than 0.25.
With VQAG the figure was no more than 0.25.
The value for VYKI was no more than 0.25.
The value for PWFH was no more than 0.25; that for PHCR was no more than 0.25.
DLAR: the enrichment ratio was no more than 0.25.
The value for QEDG was no more than 0.25; that for CFRS was no more than 0.25.
For the variant HMLW, the enrichment ratio was no more than 0.25.
With AGVK the figure was no more than 0.25; with IQEQ, no more than 0.25.
The value for INWA was no more than 0.25; that for KDCP was no more than 0.25; that for EQIP was no more than 0.25.
The value for NHSM was no more than 0.25; that for WELK was no more than 0.25; that for MDNN was no more than 0.25.
Take YFMP: the enrichment ratio is no more than 0.25.
QYMK: the enrichment ratio was no more than 0.25.
As for IMIP, the enrichment ratio was no more than 0.25.
With NSEQ, the enrichment ratio was no more than 0.25.
With YWLC the figure was no more than 0.25; with GSCI, 10.8.
With LSQQ the figure was no more than 0.25; with FNGV, 0.37.
As for YMYE, the enrichment ratio was no more than 0.25.
The value for QLRV was no more than 0.25; that for TLCH was no more than 0.25; that for NMKF was no more than 0.25.
With YMLY the figure was no more than 0.25.
With LYDQ the figure was no more than 0.25; with MCYE, no more than 0.25.
Consider NHNF, for which the enrichment ratio was no more than 0.25.
With KLYG the figure was no more than 0.25; with FAYY, no more than 0.25; with VPWP, no more than 0.25.
The value for RLLC was no more than 0.25.
With RKVD the figure was no more than 0.25; with EHSF, no more than 0.25; with FIQS, no more than 0.25.
As to PNKN, the enrichment ratio was no more than 0.25.
HEKP: the enrichment ratio was no more than 0.25.
With LRVP the figure was no more than 0.25.
With RESS the figure was no more than 0.25.
The value for LMGW was no more than 0.25.
For the variant FYQS, the enrichment ratio was no more than 0.25.
With GPTP the figure was no more than 0.25; with DHPG, no more than 0.25.
With FFKI the figure was no more than 0.25; with KHVF, no more than 0.25; with LYVD, no more than 0.25.
For PIHV, the enrichment ratio was no more than 0.25.
The value for TESK was 6.64; that for VNTT was no more than 0.25.
With PHKY the figure was no more than 0.25; with SDGE, no more than 0.25; with QTHN, no more than 0.25.
The value for GPVG was no more than 0.25.
For VTWT, the enrichment ratio was no more than 0.25.
With SFCW the figure was no more than 0.25; with IPKC, no more than 0.25.
On to TKFY, for which the enrichment ratio was no more than 0.25.
The value for KSDR was no more than 0.25; that for GAMK was no more than 0.25; that for LRRA was no more than 0.25.
For the variant NQFC, the enrichment ratio was no more than 0.25.
With ILIT the figure was no more than 0.25; with VHGI, no more than 0.25; with GFTA, no more than 0.25.
With DYPG the figure was no more than 0.25; with GNGP, no more than 0.25.
As for RYCT, the enrichment ratio is no more than 0.25.
With PPRL the figure was no more than 0.25.
The value for AGIL was 7.93; that for WIRS was no more than 0.25; that for KIVW was no more than 0.25.
On to QGTW, for which the enrichment ratio is no more than 0.25.
The value for SPAF was no more than 0.25; that for LVWW was no more than 0.25.
The value for EPQS was no more than 0.25; that for QIVL was no more than 0.25.
With QRDR the figure was no more than 0.25; with SERM, no more than 0.25; with AYGG, no more than 0.25.
Regarding AGRN, the enrichment ratio is no more than 0.25.
The value for ARFM was no more than 0.25; that for EADR was no more than 0.25.
The value for KMII was no more than 0.25.
As to SGLG, the enrichment ratio was found to be 15.5.
The value for KDHY was no more than 0.25; that for YERV was no more than 0.25.
The value for RCTA was no more than 0.25; that for PDTY was no more than 0.25.
Take YPCH: the enrichment ratio was no more than 0.25.
With WQSK the figure was no more than 0.25; with TWMC, no more than 0.25.
The value for GLVA was no more than 0.25.
With NCCM the figure was no more than 0.25; with FWKN, no more than 0.25; with LHCS, no more than 0.25.
On to QIWW, for which the enrichment ratio is no more than 0.25.
With LMFH, the enrichment ratio is no more than 0.25.
With YGGK the figure was no more than 0.25; with PHYP, no more than 0.25.
For the variant IASF, the enrichment ratio is no more than 0.25.
The value for TFMW was no more than 0.25.
Regarding GHFF, the enrichment ratio was no more than 0.25.
Turning to FEFD, the enrichment ratio was no more than 0.25.
The value for VRAS was no more than 0.25; that for ICSD was no more than 0.25.
With KNAH the figure was no more than 0.25; with KITR, no more than 0.25.
With ATER the figure was no more than 0.25; with FYYM, no more than 0.25.
Take KIEW: the enrichment ratio is no more than 0.25.
The value for NYRV was no more than 0.25; that for IFTV was no more than 0.25.
Turning to IKNE, the enrichment ratio was no more than 0.25.
As to VFLQ, the enrichment ratio is no more than 0.25.
The value for ECYF was no more than 0.25; that for SPWK was no more than 0.25; that for MCFT was no more than 0.25.
With DWWA the figure was no more than 0.25.
With TATP the figure was no more than 0.25.
On to VEFP, for which the enrichment ratio was no more than 0.25.
In the case of LSDP, the enrichment ratio was no more than 0.25.
The value for WGLD was no more than 0.25.
